Laboratory results reported in paper PMC4265758.
No constants are given. Whether binding was seen depends on the method and setting. Binding seen in cells or lysates may run through a third protein. Where a sequence is shown, tags or fusion partners need not be part of it.

Target: GST-fused CNOT8, Q9D8X5
Assay: pull-down; protein extracts from E. coli expressing GST-fused CNOT8 combined with MBP-tagged NANOS2; precipitated with glutathione sepharose; MBP-NANOS2 detected by western blotting
Settings: remark: other sources report otherwise

B1: MBP-tagged NANOS2, P60322 1-136 (protein)
chain: MDLPPFDMWRDYFNLSQVVMDIIQSRKQRQEGEVAEEPNSRPQEKSEQDLEGYPGCLPTICNFCKHNGESRHVYTSHQLKTPEGVVVCPILRHYVCPLCGATGDQAHTLKYCPLNSSQQSLYRRSGRNSAGRRVKR
In the case of B1, the binding is reported as “no binding”.
